# Measurements reported in PubChem BioAssay AID485294 (National Center for Advancing Translational Sciences (NCATS), 2010).
# Hit rate of the full screen: of about 370,000 compounds, about 150 (0.041%) were called active. Inconclusive means that the source gave no clear call. Such entries were picked first, then a sample of the others. Calls follow the shape of the dose curve; as a rule, active = well fitted inhibition curve with a large enough effect; inconclusive = small, poorly fitted or top-dose-only effect; inactive = flat fitted curve, though single readings scatter. Potencies of inconclusive entries are left out as doubtful fits.
# Molecular target: Beta-lactamase (Escherichia coli (strain K12)) (UniProt P00811)
# Test: qHTS Inhibitors of AmpC Beta-Lactamase (assay with detergent); also: nearly all actives have a fitted effect of over 25% in size;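 as to activity change, negative = inhibition: 0% = no-compound wells and -100% = no-enzyme wells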
# Details: AmpC hydrolysis of nitrocefin, absorbance 480 nm, 0.01% Triton; activity change, negative = inhibition: at 114 µM (top of the series)
# Procedure, shortened: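 20 mM phosphate pH 7.0 + 0.01% (detergent screen) or 0.0001% Triton X-100; 5.3 nM AmpC reagent; cpd preinc 15 min RT; nitrocefin (800 uM stock) to start; A480 q20 s × 4 min; Activity was normalised to no-enzyme and no-compound control wells.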
# Potency is read from the fitted curve at half-maximal effect; tags tell the direction and shape of the fitted curve.
# Chain of UniProt P00811 (P00811 whole entry, looked up): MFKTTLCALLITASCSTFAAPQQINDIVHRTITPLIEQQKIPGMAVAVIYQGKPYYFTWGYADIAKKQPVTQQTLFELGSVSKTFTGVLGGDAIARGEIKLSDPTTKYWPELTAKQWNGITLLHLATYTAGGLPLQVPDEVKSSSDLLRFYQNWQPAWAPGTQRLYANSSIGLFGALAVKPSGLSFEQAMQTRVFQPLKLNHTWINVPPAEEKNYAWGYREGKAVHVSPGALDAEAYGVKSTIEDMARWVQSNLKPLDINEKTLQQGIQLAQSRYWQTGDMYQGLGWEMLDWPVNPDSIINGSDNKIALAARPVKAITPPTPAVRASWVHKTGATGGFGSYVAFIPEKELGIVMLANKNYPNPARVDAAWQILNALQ
SMILES,Potency,"activity change, negative = inhibition"
O=C1CN(C(=O)COC(=O)c2ccco2)c2ccccc2N1,"inconclusive [inhibitor, full curve, poor fit]",–
CCCSc1oc(-c2ccco2)nc1S(=O)(=O)c1ccc(C)cc1,–,inactive: -1.91%
CC(C)(C)c1ccc(-c2nnc(NC(=O)c3ccccc3)s2)cc1,"inconclusive [inhibitor, partial curve]",–
CC(C)C[C@H](NC(=O)c1[nH]cnc1C(=O)N[C@@H](Cc1ccccc1)C(=O)OCc1ccccc1)C(=O)OC(C)(C)C,–,inactive: -9.82%
O=C(NCCCNCCCNC(=O)c1ccccn1)c1ccccn1,"inconclusive [inhibitor, full curve, poor fit]",–
COC(=O)C1CCN(C(=O)COc2cc3sc(C)nc3c3sccc23)CC1,"inconclusive [inhibitor, full curve, poor fit]",–
Cc1cc(-c2n[nH]c(=S)n2/N=C/c2ccc(Br)s2)n[nH]1,"inconclusive [inhibitor, full curve, poor fit]",–
Cc1ccc(S(=O)(=O)NCC2CCC(C(=O)NCc3ccco3)CC2)cc1 (stereo unspecified),"inconclusive [inhibitor, full curve]",–
Cc1nn(C)c(C(=O)N/N=C/c2cc3c(cc2Br)OCO3)c1Br,"inconclusive [inhibitor, full curve]",–
O=C(c1cnn2c1NC(c1ccc(Br)cc1)CC2C(F)(F)F)N1CCN2CCCC2C1 (stereo unspecified),"inconclusive [inhibitor, full curve]",–
Cc1ccc(CCNC(=O)c2cc3ccccn3n2)cc1,–,inactive: 2.44%
COc1cccc(-n2c(C)nc3c(cnn3-c3ccc(C)c(C)c3)c2=O)c1,"inconclusive [inhibitor, single point]",–
O=c1[nH]c(C2CCN(S(=O)(=O)/C=C/c3ccccc3)CC2)nc2c1nnn2Cc1ccc(F)cc1,"inconclusive [inhibitor, single point]",–
COC(=O)c1ccccc1NC(=O)CN(c1ccc(OC)cc1)S(C)(=O)=O,"inconclusive [inhibitor, full curve, poor fit]",–
CC(O)c1n(C)c(Cl)c[n+]1C (stereo unspecified),"inconclusive [inhibitor, partial curve, poor fit]",–
COc1ccc(NC(=O)CC2C(=O)N(C)C(=S)N2Cc2cccs2)cc1 (stereo unspecified),"inconclusive [inhibitor, full curve, poor fit]",–
Cc1ccc2oc(=O)c3cnn(CC(=O)N4CCc5ccccc5C4)c3c2c1,"inconclusive [inhibitor, full curve, poor fit]",–
CC(C)[C@H](NC(=O)N1CCn2c1nc1ccccc12)C(=O)NCc1ccccc1Cl,"inconclusive [inhibitor, partial curve, poor fit]",–
CCN(CC)C(=O)CSc1nc2sc3c(c2c(=O)n1CCOC)CCC3,–,inactive: -8.09%
CCOC(=O)c1ccc(NC(=O)CSc2nc3c(c(=O)n2-c2ccccc2OC)SCC3)cc1,"inconclusive [inhibitor, full curve, poor fit]",–
c1ccc(OCCCn2nnc(-c3ccc(N4CCOCC4)cc3)n2)cc1,"inconclusive [inhibitor, full curve, poor fit]",–
CCN1CCN(CCCNC(=O)CN2C(=O)c3cccnc3Oc3ccc(Cl)cc32)CC1,–,inactive: 6.06%

SMILES,Potency,"activity change, negative = inhibition"
Cc1cccc(NC(=S)NC2CCCC2)c1C,"inconclusive [inhibitor, partial curve]",–
Cc1ccccc1-c1nnn(CC(=O)c2ccc(S(=O)(=O)N3CCCC3)cc2)n1,"inconclusive [inhibitor, full curve, poor fit]",–
CCOc1ncccc1C(=O)OCC(=O)N1CCc2ccccc21,–,inactive: 1.99%
CCCCn1cnc2c(oc3ccccc32)c1=O,"inconclusive [inhibitor, full curve, poor fit]",–
CC(C(=O)NCc1ccccc1)n1ccc2cc(S(=O)(=O)N3CCCC3)ccc21 (stereo unspecified),–,inactive: -7.91%
Cc1nc(SCC(=O)N2CCOCC2)c2c(C)c(C)sc2n1,–,inactive: -2.59%
O=C(CCN1C(=O)c2ccccc2S1(=O)=O)NCc1ccccc1Cl,"inconclusive [inhibitor, full curve]",–
Cc1onc(-c2c(Cl)cccc2Cl)c1C(=O)N1CCc2ccccc2C1,"inconclusive [inhibitor, full curve, poor fit]",–
CCSC1=NC2(CCN(C(=O)NC3CCCCC3)CC2)N=C1c1ccc(OC)cc1,–,inactive: -1.34%
COC(=O)c1ccccc1NC(=O)Cn1c(=O)oc2ccc(Cl)cc21,"inconclusive [inhibitor, full curve, poor fit]",–
Cc1ccc2c(c1)/C(=N/OC(=O)c1ccc(F)cc1)CCS2,–,inactive: -1.47%
COc1ccc(C(=O)NC2CC2)cc1OC1CCN(Cc2cc(C)cc(C)c2)CC1,"inconclusive [inhibitor, full curve, poor fit]",–
CCOc1ccc(OCCC(=O)N(CCCOC)c2c(N)n(Cc3ccccc3)c(=O)[nH]c2=O)cc1,"inconclusive [inhibitor, full curve, poor fit]",–
Cc1cc(Cl)ccc1OCC(=O)N(Cc1cccs1)C1CCS(=O)(=O)C1 (stereo unspecified),"inconclusive [inhibitor, full curve, poor fit]",–
O=C1CCCN=C(Nc2ccc(F)c(Cl)c2)S1,–,inactive: -3.73%
COc1ccc2cc(CN(CCc3ccccc3)Cc3nnnn3CC3CCCO3)c(=O)[nH]c2c1 (stereo unspecified),–,inactive: -7.82%
CC1(C)NC(=O)N(CC(=O)OCC(=O)N2CCN(S(=O)(=O)c3ccccc3)CC2)C1=O,"inconclusive [inhibitor, full curve, poor fit]",–
Cc1ccc(N)cc1-n1c(C)ccc1C,"inconclusive [inhibitor, full curve, poor fit]",–
C=C(C)C(=O)OC1(C(F)(F)F)Oc2cc(C)ccc2NC1=O (stereo unspecified),"inconclusive [inhibitor, full curve]",–
COc1ccc(OC)c(N=c2ssnc2Cl)c1,–,inactive: -10.5%
C[C@H]1CC[C@H]2C(=O)N3[C@H](c4ccccc4Br)[C@@H](C)CC[C@H]3C(=O)N2[C@@H]1c1ccccc1Br,"inconclusive [inhibitor, full curve, poor fit]",–
COc1cccc(NC(=O)COC(=O)c2ccc(F)cc2F)c1,"inconclusive [inhibitor, partial curve]",–

SMILES,Potency,"activity change, negative = inhibition"
O=S(=O)(NCc1ccc2c(c1)OCO2)c1c(F)cc(F)cc1Br,"inconclusive [inhibitor, full curve, poor fit]",–
CC(=O)Cc1nsc(Nc2ccccc2)n1,"inconclusive [inhibitor, full curve, poor fit]",–
CCOC(=O)c1c(NC(=O)CC2SC(N)=NC2=O)sc2c1CCC(C)C2 (stereo unspecified),"inconclusive [inhibitor, partial curve, poor fit]",–
CC1CCN(CCCNC(=O)c2cc3sccc3n2C)CC1,"inconclusive [inhibitor, partial curve]",–
CCOc1ccc(S(=O)(=O)n2cnc3ccccc32)cc1,"inconclusive [inhibitor, full curve, poor fit]",–
O=C1COc2ccccc2N1Cc1ccccc1Cl,"inconclusive [inhibitor, partial curve]",–
O=C(Nc1cccc(S(=O)(=O)N2CCCCC2)c1)c1ccc([N+](=O)[O-])o1,–,inactive: -14.4%
N#Cc1ccc(S(=O)(=O)N2CCCN(c3ccc(C(F)(F)F)cn3)CC2)cc1,–,inactive: -4.32%
O=C(Nc1ccc(Cl)cc1Cl)c1cccc(N2C(=O)C=CC2=O)c1,"inconclusive [inhibitor, full curve, poor fit]",–
CCOC(=O)c1c(C)n(C)c2cc(Br)c(OC)cc12,–,inactive: 0.0587%
O=S(=O)(NCc1ccncc1)c1ccc(S(=O)(=O)NCC2CCCO2)cc1 (stereo unspecified),"inconclusive [inhibitor, full curve, poor fit]",–
O=C(Nc1nc2c(s1)CCc1ccccc1-2)c1cccs1,–,inactive: -4.83%
Cc1ccc(/C=c2/sc3nnc(-c4ccccc4Cl)n3c2=O)o1,"inconclusive [inhibitor, full curve, poor fit]",–
Cc1cccc(C)c1NC(=O)Cn1c(CN2CCCCC2)nc2ccccc2c1=O,"inconclusive [inhibitor, single point]",–
Cc1nc(NC(=O)c2ccccc2)sc1C,"inconclusive [inhibitor, partial curve, poor fit]",–
O=[N+]([O-])c1cc(CN2CCOCC2)c2cccnc2c1O,"inconclusive [inhibitor, single point]",–
Clc1ccc(-c2nnn(Cc3nc4ccccc4s3)n2)cc1,"inconclusive [inhibitor, full curve, poor fit]",–
CCCCN(C(=O)NC(=O)Nc1ccccc1C)S(C)(=O)=O,"inconclusive [inhibitor, partial curve]",–
COc1cccc(-c2cc(C(F)(F)F)nc(NCc3ccc(F)cc3)n2)c1,"inconclusive [inhibitor, single point]",–
O=C(c1cccc(NC2=NC3CS(=O)(=O)CC3S2)c1)N1CCN(c2ccc(F)cc2)CC1 (stereo unspecified),"inconclusive [inhibitor, full curve, poor fit]",–
O=C(Nc1ccc(S(=O)(=O)N2CCCCCC2)cc1)C1CCCO1 (stereo unspecified),"inconclusive [inhibitor, single point]",–
Cc1c(C(=O)N(C)CCn2ccnc2C)oc2c(F)cccc12,"inconclusive [inhibitor, full curve, poor fit]",–
